# Results reported in the RNAGym collection of RNA variant scans (doi:10.1073/pnas.2313332121).
# This sample is rich in variants without activity.
# B1: TPR 5TU (parent)
# chain: GGAUCUUCUCGAUCUAACAAAAAAGACAAAUCUGCCACAAAGCUUGAGAGCAUCUUCGGAUGCAGAGGCGGCAGCCUUCGGUGGCGCGAUAGCGCCAACGUUCUCAACUAUGACACGCAAAACGCGUGCUCCGUUGAAUGGAGUUUAUCAUG
# Variants of: B1
# Assay: polymerase ribozyme fitness, log enrichment relative to wild type (log ratio); higher = more active; in vitro selection for triplet polymerase activity
# Outline: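 A heterodimeric triplet polymerase ribozyme had each of its subunits mutagenized by PCR into a library, which was transcribed. One round of in vitro selection, done in triplicate, annealed each library with a biotinylated primer, its partner subunit and triplets, then incubated it frozen at −7 °C before gel excision of extended constructs, streptavidin-bead capture and RT-PCR. Fitness is the logarithm of genotype enrichment relative to wild-type enrichment, based on Illumina sequencing of inputs and outputs and inverse-variance-weighted replicate averages. A base-2 logarithm is used, and genotypes were kept only with ≥10 input reads and ≥1 read per output.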
row,Variant,polymerase ribozyme fitness (log ratio)
1,GGAUCUUCUCGAUCUAACAAAAAAGACAAAUCUGCCACAAAGCUUGAGAGCAUCUUCGGAUGCCGAGGCGGCAGCCUUCGGUGGCGCGAUAGCGCCAACGUUCUCAACUAUGACACGCGAAACGCGUGCUCCGUUGAAUGGAGUUUAUAAUG [A64C A119G C149A],≤ -4.2
2,GGAUCUUCUCGAUCUAACAAAAAAGACAAAUCUGCCACAAAGCUUGAGAGCAUCUUCGGAUGCGGAGGCGGCAGCCUUCGGUGGCGCGAUAGCGCCUACGUUCUCAACUAUGACACGCAAAACGCGUGCUCCGUUGAAUGGAGUUUAUCAUG [A64G A97U],≤ -4.2
3,GGAUCUUCUCGAUCUAACAAAAAAGACAAAUCUGCCACAAAGCUUGAGAGCAUCUUCGGAUGCCGAGGCGGCAGCCUUCGCUGGCGCGAUAGCGCCAACGUUCUCAACUAUGACAAGCAAAACGCGUGCUCCGUUGAAUGGAGUUUAUCAUG [A64C G81C C116A],≤ -4.2
4,GGAUCUUCUCGAUCUAACAAAAAAGACAAAUCUGCCACAAAGCUUGAGAGCAUCUUCGGAUGCCGAGGCCGCGGCCUUCGGUGGCACGAUAGCGCCAAAGUUCUCAACUAUGACACGCAAAACGCGUGCUCCGUUGAAUGGAGUUUAUCAUG [A64C G70C A73G G86A C99A],≤ -4.2
5,GGAUCUUCUCGAUCUAACAAAAAAGACAAAUCUGCCACAAAGCUUGAGAGCAUCUUCGGAUGCGGAGGCGGCAGCCUUGGGUGGCGCGAUUGCGCCAACGUUCUCAACUAUGACACGCAAAACUCGUGCUCCUUUGAAUGGAGUUUAUCAUG [A64G C79G A91U G124U G133U],≤ -4.2
6,GGAUCUUCUCGAUCUAACAAAAAAGACAAAUCUGCCACAAAGCUUGAGAGCAUCUUCGGAUGCGGAGGUGGCAGCCUUCGGUGGCGCGAUAGCGCCAAAGUUCUCAACUAUGACACGCAAAACGCGUGCUCCGUUGAAUCGAGUUUAUCAUG [A64G C69U C99A G140C],≤ -4.2
7,GGAUCUUCUCGAUCUAACAAAAAAGACAAAUCUGCCACAAAGCUUGAGAGCAUCUUCGGAUGCCGAGGCGGCAGCCUUCGGUGGCGCGUUAGCGCCAACGUUCUCAACUAUGACACGCAAAACGCGUGCUCCGUUGAAUGGAGUUUAUCGUG [A64C A89U A150G],≤ -4.2
8,GGAUCUUCUCGAUCUAACAAAAAAGACAAAUCUGCCACAAAGCUUGAGAGCAUCUUCGGAUGCGUUGGCGGCAGCCUUCGGUGGCGCGAUAGCGCCAAGGUUCUCAACUCUGACACGCAAAACGCGUGCUCCGUUCAAUGGAGUUUAUCAUU [A64G G65U A66U C99G A110C G136C G152U],≤ -4.2
9,GGAUCUUCUCGAUCUAACAAAAAAGACAAAUCUGCCACAAAGCUUGAGAGCAUCUUCGGAUGCCGAGGCGGCAGCCUUUGGUGGCGCGAUAGCGCCAACGUUCUCAACUAUCACACGCAAAACGCGUGCUCCGUUGAAUGGAGUUUAUCAUG [A64C C79U G112C],≤ -4.2
10,GGAUCUUCUCGAUCUAACAAAAAAGACAAAUCUGCCACAAAGCUUGAGAGCAUCUUCGGAUGCCGAGGCGGCAGCCUUCGGUGGCGCGAUAGCGCCAACGUUCUCACCUAUGACACGCAAAACGCGUGCUCCGUUGAAUGGAGUUUAUCAUG [A64C A107C],≤ -4.2
11,GGAUCUUCUCGAUCUAACAAAAAAGACAAAUCUGCCACAAAGCUUGAGAGCAUCUUCGGAUGCGGAGGCGGCAGCCUUCGGUGGCGCGAUAGCGCCAACGUUCUCAACUAUGACACGCAAAACGCGUGCUCCGUUGAAUGGAGUUUAUCUUG [A64G A150U],-3.42
12,GGAUCUUCUCGAUCUAACAAAAAAGACAAAUCUGCCACAAAGCUUGAGAGCAUCUUCGGAUGCGGAGGCGGCAGCCUUCUGUGGUGCGAUAGUUCCAACGUUUUCAACUAUGACACGCAAAACGCGUGCUCCGUUGAAUGGAGUUUAUCAUG [A64G G80U C85U C93U G94U C103U],-4.18
13,GGAUCUUCUCGAUCUAACAAAAAAGACAAAUCUGCCACAAAGCUUGAGAGCAUCUUCGGAUGCCAAGGCGGCAGCCUUCGGUGGCGCGAUAGCGCCAACGUUCUCAGCUAUUACACGCAAAACACGUGCUCCGUUGAAUGUAGUUUAGCAUG [A64C G65A A107G G112U G124A G141U U148G],≤ -4.2
14,GGAUCUUCUCGAUCUAACAAAAAAGACAAAUCUGCCACAAAGCUUGAGAGCAUCUUCGGAUGCCGAGGCGGCAGCAUUCGAUGGCGCGAUAGCGCCAACGUUCUCAACUAUGGCACGCAAAACGCGUGCUCCGUUGAAUGGAGUUUAUCAUG [A64C C76A G81A A113G],≤ -4.2
15,GGAUCUUCUCGAUCUAACAAAAAAGACAAAUCUGCCACAAAGCUUGAGAGCAUCUUCGGAUGCCGAGGCGGCAGCCUUCGGUGGUGCGAUAGCGCCAACGUUCUCAACUAUGACACGCAAAACGCGUGCUCCGUUGAAUGGAGUUUAUCAUG [A64C C85U],≤ -4.2
16,GGAUCUUCUCGAUCUAACAAAAAAGACAAAUCUGCCACAAAGCUUGAGAGCAUCUUCGGAUGCCGAGGCGGCAGCCUUCGGUGGGGCGAUAGCGCCAACGUUCUCAACUAUGACACGCAAAACGCGUGCUCCGUUGAAUGGAGUUUAUCAUG [A64C C85G],≤ -4.2
17,GGAUCUUCUCGAUCUAACAAAAAAGACAAAUCUGCCACAAAGCUUGAGAGCAUCUUCGGAUGCCGAGGCGGCAGCCUUCGGUGGCGCGAUAGCGCCAACGUUCUCAACUAUGACUCGCAAAACGCGUGCUCCGUUGAAUGGUUUUUAUCAUG [A64C A115U A142U G143U],≤ -4.2
18,GGAUCUUCUCGAUCUAACAAAAAAGACAAAUCUGCCACAAAGCUUGAGAGCAUCUUCGGAUGCCGAGGCGGCAGCCUUCGGUGGCGAGAUAGCGCCAACGUUCUCAACUAUGACACGCAAAACGCGUGCUCCCUUGAAAGGUGUUCAUCAGG [A64C C87A G133C U139A A142U U146C U151G],≤ -4.2
19,GGAUCUUCUCGAUCUAACAAAAAAGACAAAUCUGCCACAAAGCUUGAGAGCAUCUUCGGAUGCCGAGGCGGCAGCCUUCGGUGGCGCUAUAGCGCCAACGUUCUCAACUAUGACACGCAAAACGCGUGCUCCGUUGAAUGGAGUUUAUCCUG [A64C G88U A150C],≤ -4.2
